Experimental data reported in the supplement of paper PMC10369915.
The other results are listed elsewhere or left out. Cut-off read from the data, not from the text of the source: active = 3.2 or more and inactive = the rest. The signal is at background level for most entries.

molecular target: SHP2 C-SH2 domain E139D; experiment: enrichment score (SH2-bound / input frequency) (ratio); bacterial display of known human phosphotyrosine sites (pTyr-Var adds point mutants) read by sequencing; higher = stronger binding; tyrosines were phosphorylated by kinases first; conditions: peptide library: pTyr-Var
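Note: displayed peptides selected on beads carrying the immobilized SH2 domain, with library peptides lacking any tyrosine serving as negative controls.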

Enrichment score, inactive:
IYETDYYQKGG [INSR_Y1189_R1191Q] 1.06
PARLEYYENEK [IRS1_Y46] 1.26
HRDDGYMPMSP [IRS1_Y612_T608R] 0.6
EEHIPYTHMNG [INSR_Y1361] 0.614
DISEPYEVYRI [IRF8_Y107_K108E] 0.436
VGTTAYMAPEA [IRAK4_Y354] 0.675
EPYKVYRIVPE [IRF8_Y110] 0.811
VGTTAYVAPEA [IRAK4_Y354_M355V] 0.722
EQMASYFGHSV [ITGA2B_Y319] 0.963
MTRDIYETDFF [INSR_Y1185_YF] 1
SSNTEYLSASD [INSR_Y999_P997T] 0.444
SFVMVYEGNAR [INSR_Y1038_G1035V] 1.35
DISEPYEVFRI [IRF8_Y107_K108E_YF] 0.964
ARLEFCENEKK [IRS1_Y47_Y47C_YF] 0.941
SWDKRYCEAGC [ITGA2B_Y197_F202C] 0.67
NLFIEYPTGSG [IRF2BPL_Y423_K418N] 1
VKALKYKSMKI [ITGA11_Y1098_L1093V] 1.21
EFNLMYHGTKE [IRF6_Y97_D98H] 0.875

molecular target: SHP2 C-SH2 domain wild-type; experiment: as above; conditions: peptide library: pTyr-Var

Enrichment score, inactive:
IYETDYYQKGG [INSR_Y1189_R1191Q] 0.84
PARLEYYENEK [IRS1_Y46] 1.22
HRDDGYMPMSP [IRS1_Y612_T608R] 0.721
EEHIPYTHMNG [INSR_Y1361] 0.657
DISEPYEVYRI [IRF8_Y107_K108E] 0.585
VGTTAYMAPEA [IRAK4_Y354] 0.855
EPYKVYRIVPE [IRF8_Y110] 0.509
VGTTAYVAPEA [IRAK4_Y354_M355V] 0.817
EQMASYFGHSV [ITGA2B_Y319] 0.694
MTRDIYETDFF [INSR_Y1185_YF] 1.06
SSNTEYLSASD [INSR_Y999_P997T] 0.58
SFVMVYEGNAR [INSR_Y1038_G1035V] 0.917
DISEPYEVFRI [IRF8_Y107_K108E_YF] 0.77
ARLEFCENEKK [IRS1_Y47_Y47C_YF] 0.885
SWDKRYCEAGC [ITGA2B_Y197_F202C] 0.566
NLFIEYPTGSG [IRF2BPL_Y423_K418N] 0.868
VKALKYKSMKI [ITGA11_Y1098_L1093V] 1.25
EFNLMYHGTKE [IRF6_Y97_D98H] 0.718

molecular target: SHP2 N-SH2 domain L43F; experiment: as above; conditions: peptide library: pTyr-Var

Enrichment score, inactive:
IYETDYYQKGG [INSR_Y1189_R1191Q] 0.924
PARLEYYENEK [IRS1_Y46] 1.21
HRDDGYMPMSP [IRS1_Y612_T608R] 0.741
EEHIPYTHMNG [INSR_Y1361] 0.671
DISEPYEVYRI [IRF8_Y107_K108E] 0.651
VGTTAYMAPEA [IRAK4_Y354] 0.821
EPYKVYRIVPE [IRF8_Y110] 0.575
VGTTAYVAPEA [IRAK4_Y354_M355V] 0.861
EQMASYFGHSV [ITGA2B_Y319] 0.758
MTRDIYETDFF [INSR_Y1185_YF] 1.02
SSNTEYLSASD [INSR_Y999_P997T] 0.465
SFVMVYEGNAR [INSR_Y1038_G1035V] 1.22
DISEPYEVFRI [IRF8_Y107_K108E_YF] 0.696
ARLEFCENEKK [IRS1_Y47_Y47C_YF] 0.946
SWDKRYCEAGC [ITGA2B_Y197_F202C] 0.612
NLFIEYPTGSG [IRF2BPL_Y423_K418N] 0.895
VKALKYKSMKI [ITGA11_Y1098_L1093V] 1.32
EFNLMYHGTKE [IRF6_Y97_D98H] 0.757

molecular target: SHP2 N-SH2 domain T42A; experiment: as above; conditions: peptide library: pTyr-Var

Enrichment score, inactive:
IYETDYYQKGG [INSR_Y1189_R1191Q] 0.979
PARLEYYENEK [IRS1_Y46] 1.83
HRDDGYMPMSP [IRS1_Y612_T608R] 0.501
EEHIPYTHMNG [INSR_Y1361] 0.608
DISEPYEVYRI [IRF8_Y107_K108E] 0.605
VGTTAYMAPEA [IRAK4_Y354] 0.728
EPYKVYRIVPE [IRF8_Y110] 0.598
VGTTAYVAPEA [IRAK4_Y354_M355V] 0.856
EQMASYFGHSV [ITGA2B_Y319] 0.723
MTRDIYETDFF [INSR_Y1185_YF] 0.734
SSNTEYLSASD [INSR_Y999_P997T] 0.434
SFVMVYEGNAR [INSR_Y1038_G1035V] 1.04
DISEPYEVFRI [IRF8_Y107_K108E_YF] 0.602
ARLEFCENEKK [IRS1_Y47_Y47C_YF] 0.994
SWDKRYCEAGC [ITGA2B_Y197_F202C] 0.576
NLFIEYPTGSG [IRF2BPL_Y423_K418N] 0.744
VKALKYKSMKI [ITGA11_Y1098_L1093V] 1.12
EFNLMYHGTKE [IRF6_Y97_D98H] 0.806

molecular target: SHP2 N-SH2 domain T52S; experiment: as above; conditions: peptide library: pTyr-Var

Enrichment score, inactive:
IYETDYYQKGG [INSR_Y1189_R1191Q] 0.922
PARLEYYENEK [IRS1_Y46] 1.03
HRDDGYMPMSP [IRS1_Y612_T608R] 0.646
EEHIPYTHMNG [INSR_Y1361] 0.617
DISEPYEVYRI [IRF8_Y107_K108E] 0.749
VGTTAYMAPEA [IRAK4_Y354] 0.719
EPYKVYRIVPE [IRF8_Y110] 0.756
VGTTAYVAPEA [IRAK4_Y354_M355V] 0.812
EQMASYFGHSV [ITGA2B_Y319] 0.797
MTRDIYETDFF [INSR_Y1185_YF] 0.873
SSNTEYLSASD [INSR_Y999_P997T] 0.475
SFVMVYEGNAR [INSR_Y1038_G1035V] 1.47
DISEPYEVFRI [IRF8_Y107_K108E_YF] 0.811
ARLEFCENEKK [IRS1_Y47_Y47C_YF] 0.849
SWDKRYCEAGC [ITGA2B_Y197_F202C] 0.558
NLFIEYPTGSG [IRF2BPL_Y423_K418N] 0.879
VKALKYKSMKI [ITGA11_Y1098_L1093V] 1.43
EFNLMYHGTKE [IRF6_Y97_D98H] 0.694

molecular target: SHP2 N-SH2 domain wild-type; experiment: as above; conditions: peptide library: pTyr-Var

Enrichment score, inactive:
IYETDYYQKGG [INSR_Y1189_R1191Q] 0.933
PARLEYYENEK [IRS1_Y46] 1.39
HRDDGYMPMSP [IRS1_Y612_T608R] 0.711
EEHIPYTHMNG [INSR_Y1361] 0.795
DISEPYEVYRI [IRF8_Y107_K108E] 0.506
VGTTAYMAPEA [IRAK4_Y354] 0.683
EPYKVYRIVPE [IRF8_Y110] 0.65
VGTTAYVAPEA [IRAK4_Y354_M355V] 0.976
EQMASYFGHSV [ITGA2B_Y319] 0.745
MTRDIYETDFF [INSR_Y1185_YF] 1.09
SSNTEYLSASD [INSR_Y999_P997T] 0.534
SFVMVYEGNAR [INSR_Y1038_G1035V] 0.866
DISEPYEVFRI [IRF8_Y107_K108E_YF] 0.81
ARLEFCENEKK [IRS1_Y47_Y47C_YF] 1.17
SWDKRYCEAGC [ITGA2B_Y197_F202C] 0.564
NLFIEYPTGSG [IRF2BPL_Y423_K418N] 1.02
VKALKYKSMKI [ITGA11_Y1098_L1093V] 1.31
EFNLMYHGTKE [IRF6_Y97_D98H] 0.679
